# Data reported in the supplement of paper PMC11417369.
# ± gives the standard deviation of the averaged measurements. Some of the results follow.
# Test system: PfAP2-I AP2 domain 3 (GST-tagged)
# Experiment: gcPBM binding intensity (ln(normalized median fluorescence intensity)); higher = stronger DNA binding
# How it was run: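 GST-fused DNA-binding domains of P. falciparum, expressed in E. coli, were applied at about 25 μg on average for 1 h to an Agilent 4 × 180k array of primer-extended double-stranded 36-bp intergenic genomic probes and negative controls. Binding intensity is the highest Masliner-normalised natural-log median intensity across replicate spots of either probe orientation, measured with Alexa488 anti-GST antibody and a 488 nm scan.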
row,Sequence,gcPBM binding intensity (ln)
1,TATATATATTTATGTACACACATATATACCTTTCAT [CACACA_site5479],8.28 ± 0.42
2,TATTAATTATAAGATGCATGTGCAAAAATATGTTCC [TGCATGCA_site51],9.29 ± 0.4
3,ATAATATTTTATTATACATGCAAATTATTATATATA [TGCATGCA_site40],7.58 ± 0.56
4,TTTCTTTGTATTTATAGTACATATTTTAATAACTGC [XGTACX_site6673],7.76 ± 0.31
5,TAAAAATTAAAAAGGGTGCAAAAAAAAAAAAAAAAA [GTGCAC_site9733],11 ± 0.61
6,AAAAGACATTTTTTTTTATAAATACACACGTACGTG [TGCATGCA_negctrl_site281],7.79 ± 0.67
7,AGGAGGAACAAACAAAACAATAAAAATTATAATAAA [GTGCAC_negctrl_site206],7.92 ± 0.49
8,TTCCAAGAAATAATAGTGCATTATTCATTTTAATAA,11.5 ± 0.42
9,TTCAAAGACACAATCACACACATACATAAATATACA [CACACA_site687],7.81 ± 0.35
10,AATATACATAACAAGGTGCAAAAAATATTGTTCATA [GTGCAC_site9499],10.4 ± 0.26
11,TTATTATTATGATTATTATGATGATTATACAACTGT [TGCATGCA_negctrl_site241],7.53 ± 0.61
12,ATTATATTAATTTATAGTACAATATTTATATATATG [XGTACX_site4668],7.54 ± 0.28
13,TATATATTACTTTTTTGTACGAATTTTACAACTACG [XGTACX_site3473],7.87 ± 0.39
14,TATTAAAATATTCTCACACACCAAAATATGTATGTA [CACACA_site6565],7.5 ± 0.38
15,AAAAAAAAAAAAAAAAAAAGAAAAGAAAATAGGGTT [GTGCAC_negctrl_site421],8.96 ± 0.22
16,GCCATTAATTTATACACACACATTATAACTTTTTAT [CACACA_site6492],8.29 ± 0.49
17,TTAAATAAAAAAATAACACACATATAAATCTATATG [CACACA_site7482],7.43 ± 0.48
18,TATCAGCAATGGAAAACATGCAAAAAATTAATATAT [TGCATGCA_site623],7.95 ± 0.74
19,TCTTCAAAGACACAATCACACACATACATAAATATA [CACACA_site8128],7.79 ± 0.46
20,ATCAAAAATGTTATATATATATATATATATATATAT [TGCATGCA_negctrl_site71],9.41 ± 0.77
21,AATACGTTTCAAAAATGTACACATATATCATAAATA [XGTACX_site8962],7.76 ± 0.56
22,TGATTCTTTTCAAAGTGTACAGTAATTTTTATGTAA [XGTACX_site8452],7.59 ± 0.4

row,Sequence,gcPBM binding intensity (ln)
1,TATATAATTCAAAAATGTACATGAAATATAAATATT [XGTACX_site7984],7.81 ± 0.67
2,AAATATATTGCATATATACACACGTATATATATTAA [CACACA_site2759],7.93 ± 0.47
3,ATATCAAGCTATGAGAAAAAAAAAAAGAAAAAAAAA [CACACA_negctrl_site1370],7.61 ± 0.83
4,AAGTTTTCTTAAAGATGTACTTTTTAAAAATAAAAT [XGTACX_site3063],7.7 ± 0.29
5,ATATTATAAATTATAGGTACACACAAAAAAAAAAAG [XGTACX_site2637],8.3 ± 0.25
6,TATATTTATTTTTAATGTACATATTTAAGAAAACTA [XGTACX_site4920],7.83 ± 0.16
7,GACTCATTAAGGATTATTCCTAATGATCAAAAGAAC [CACACA_negctrl_site515],7.75 ± 0.6
8,AACTTGTATTTATACACACACACACTAGCTTTTTTT [CACACA_site5132],7.98 ± 0.64
9,AGAATTAAAAACAGTTGTACAAAAAGTTGTATAAAT [XGTACX_site411],7.96 ± 0.54
10,AGTAATAAATTTTATACATGCATAAAAAAAAAAAAA [TGCATGCA_site661],8.29 ± 0.73
11,TATAGCTTTCATTATACACACATCAAAAATTTAAAT [CACACA_site227],7.93 ± 0.46
12,TTAAAAATCATTTAAGAACACACAAATATTTCCATT [CACACA_site8418],7.57 ± 0.44
13,TTTTTTTTTTCTTTTTTTTATTATATTAACGGAATT [GTGCAC_negctrl_site104],7.97 ± 0.43
14,AATAAACAAATAAATAAACACACAATATATGTATAT [CACACA_site9268],7.57 ± 0.61
15,AAAAAGAAATACAAATAATATATATATATATATATT [TGCATGCA_negctrl_site458],7.71 ± 0.38
16,CATAAAAATTGAAGCACACACACAAAAGAAATACAA [CACACA_site1112],8.27 ± 0.54
17,ATCATTTCTATATAAGCACACACGTGGAATTTTTTT [CACACA_site2786],9.27 ± 0.47
18,TTTCTTTAACAAGTTAAACACACATACATATATACA [CACACA_site8810],7.85 ± 0.49
19,AAAATAAATATATTATCCACGTTGTATATATATATA [XGTACX_negctrl_site136],9.46 ± 0.38
20,CACATACAGATATATACACACAAATATAAATACACA [CACACA_site6512],7.86 ± 0.38
21,AATAAATATAAAAATGCACACACACTAATAAAAAAA [CACACA_site8201],8.67 ± 0.52
22,TTACTTATATGCATAGTGCAAATTTGGTAAATATCT,10.3 ± 0.028
